Source: patent US20250263469A1 (HOSPITAL FOR SICK CHILDREN, published 2025)

Experiments:
[1] = molecular target: SARS-CoV-2 Spike on pseudotyped virus (PsV) (SARS-CoV-2); test: cell-based or functional assay
[2] = molecular target: SARS-CoV-2 Spike on pseudotyped virus (PsV) (SARS-CoV-2); test: cell-based or functional assay; remark: listed apart in the source

Binder	IC50 SARS-CoV2 PsV, MB [1] [µg/mL]	Median IC50, SARS-CoV-2 PsV neutralization [2] [µg/mL]
MB 180 (other) chain 1: DIVMTQSPLSLPVTPGEPASISCRSSQSLLHSNGYNYLDWYLQKPGQSPQLLIYAASSLQSGVPDRFSGSGSGTDFTLKISRVEAEDVGVYYCQQYYSSPYTFGQGTKLEIKRTVAAPSVFIFPPSDEQLKSGTASVVCLLNNFYPREAKVQWKVDNALQSGNSQESVTEQDSKDSTYSLSSTLTLSKADYEKHKVYACEVTHQGLSSPVTKSFNRGECGGGGSGGGGSGGGGSGGGGSGGGGSGGGGSGGGGSGGGGSGGGGSGGGGSGGGGSGGGGSGGGGSGGGGSQVQLVQSGAEVKKPGSSVKVSCKASGYTFTSYAMHWVRQAPGQGLEWMGRISPRSGGTKYAQRFQGRVTITADESTSTAYMELSSLRSEDTAVYYCAREAVAGTHPQAGDFDLWGRGTLVTVSSASTKGPSVFPLAPSSKSTSGGTAALGCLVKDYFPEPVTVSWNSGALTSGVHTFPAVLQSSGLYSLSSVVTVPSSSLGTQTYICNVNHKPSNTKVDKKVEPKSCGGGGSGGGGSGGGGSGGGGSGGGG[not shown - about 200 residues] chain 2: [not shown - human IgG1 Fc]GGGGSGGGGSGGGGSGGGGSGGGGSGGGGSGGGGSGGGGSGGGGSGGGGSGGGGSGGGGSGGGGSGGGGS[not shown - human IgG1 Fc]GGGGSGGGGSGGGGSGGGGSGGGGSGGSSQIRQNYSTDVEAAVNSLVNLYLQASYTYLSLGFYFDRDDVALEGVSHFFRELAEEKREGYERLLKMQNQRGGRALFQDIKKPAEDEW chain 3: DIVMTQSPLSLPVTPGEPASISCRSSQSLLHSNGYNYLDWYLQKPGQSPQLLIYAASSLQSGVPDRFSGSGSGTDFTLKISRVEAEDVGVYYCQQYYSSPYTFGQGTKLEIKRTVAAPSVFIFPPSDEQLKSGTASVVCLLNNFYPREAKVQWKVDNALQSGNSQESVTEQDSKDSTYSLSSTLTLSKADYEKHKVYACEVTHQGLSSPVTKSFNRGECGGGGSGGGGSGGGGSGGGGSGGGGSGGGGSGGGGSGGGGSGGGGSGGGGSGGGGSGGGGSGGGGSGGGGSQVQLVQSGAEVKKPGSSVKVSCKASGYTFTSYAMHWVRQAPGQGLEWMGRISPRSGGTKYAQRFQGRVTITADESTSTAYMELSSLRSEDTAVYYCAREAVAGTHPQAGDFDLWGRGTLVTVSSASTKGPSVFPLAPSSKSTSGGTAALGCLVKDYFPEPVTVSWNSGALTSGVHTFPAVLQSSGLYSLSSVVTVPSSSLGTQTYICNVNHKPSNTKVDKKVEPKSCGGGGSGGGGSGGGGSGGGGSGGGGSGKTPDAMKAAMALEKKLNQALLDLHALGSARTDPHLCDFLETHFLDEEVKLIKKMGDHLTNLHRLGGPEAGLGEYLFERLTLRHD	0.89	0.89
MB 254 (other) chain 1: DIQMTQSPSSLSASVGDRVTITCRASQGISSYLAWYQQKPGKAPKLLIYDASSLQIGVPSRFSGSGSGTDFTLTISSLQPEDFATYYCLQSYSTPPWTFGQGTKVEIKRTVAAPSVFIFPPSDEQLKSGTASVVCLLNNFYPREAKVQWKVDNALQSGNSQESVTEQDSKDSTYSLSSTLTLSKADYEKHKVYACEVTHQGLSSPVTKSFNRGECGGGGSGGGGSGGGGSGGGGSGGGGSGGGGSGGGGSGGGGSGGGGSGGGGSGGGGSGGGGSGGGGSGGGGSEVQLLESGGGLVQPGGSLRLSCAASGFTFSSSAMHWVRQAPGKGLEWVSAIGTGGDTYYADSVKGRFTISRDNSKNTLYLQMNSLRAEDTAVYYCAREGDGYNFYFDYWGQGTLVTVSSASTKGPSVFPLAPSSKSTSGGTAALGCLVKDYFPEPVTVSWNSGALTSGVHTFPAVLQSSGLYSLSSVVTVPSSSLGTQTYICNVNHKPSNTKVDKKVEPKSCGGGGSGGGGSGGGGSGGGGSGGGG[not shown - about 200 residues] chain 2: [not shown - human IgG1 Fc]GGGGSGGGGSGGGGSGGGGSGGGGSGGGGSGGGGSGGGGSGGGGSGGGGSGGGGSGGGGSGGGGSGGGGS[not shown - human IgG1 Fc]GGGGSGGGGSGGGGSGGGGSGGGGSGGSSQIRQNYSTDVEAAVNSLVNLYLQASYTYLSLGFYFDRDDVALEGVSHFFRELAEEKREGYERLLKMQNQRGGRALFQDIKKPAEDEW chain 3: DIQMTQSPSSLSASVGDRVTITCRASQGISSYLAWYQQKPGKAPKLLIYDASSLQIGVPSRFSGSGSGTDFTLTISSLQPEDFATYYCLQSYSTPPWTFGQGTKVEIKRTVAAPSVFIFPPSDEQLKSGTASVVCLLNNFYPREAKVQWKVDNALQSGNSQESVTEQDSKDSTYSLSSTLTLSKADYEKHKVYACEVTHQGLSSPVTKSFNRGECGGGGSGGGGSGGGGSGGGGSGGGGSGGGGSGGGGSGGGGSGGGGSGGGGSGGGGSGGGGSGGGGSGGGGSEVQLLESGGGLVQPGGSLRLSCAASGFTFSSSAMHWVRQAPGKGLEWVSAIGTGGDTYYADSVKGRFTISRDNSKNTLYLQMNSLRAEDTAVYYCAREGDGYNFYFDYWGQGTLVTVSSASTKGPSVFPLAPSSKSTSGGTAALGCLVKDYFPEPVTVSWNSGALTSGVHTFPAVLQSSGLYSLSSVVTVPSSSLGTQTYICNVNHKPSNTKVDKKVEPKSCGGGGSGGGGSGGGGSGGGGSGGGGSGKTPDAMKAAMALEKKLNQALLDLHALGSARTDPHLCDFLETHFLDEEVKLIKKMGDHLTNLHRLGGPEAGLGEYLFERLTLRHD	9.3	9.3
MB 120 (other) chain 1: EIVMTQSPATLSVSPGERATLSCRASQSVSSRYLAWYQQKPGQAPRLLIYGASTRATGIPARFSGSGSGTEFTLTISSLQSEDFAVYYCQQYYTTPRTFGQGTRLEIKRTVAAPSVFIFPPSDEQLKSGTASVVCLLNNFYPREAKVQWKVDNALQSGNSQESVTEQDSKDSTYSLSSTLTLSKADYEKHKVYACEVTHQGLSSPVTKSFNRGECGGGGSGGGGSGGGGSGGGGSGGGGSGGGGSGGGGSGGGGSGGGGSGGGGSGGGGSGGGGSGGGGSGGGGSQVQLVQSGAEVKKPGASVKVSCKASGYTFTSYDINWVRQAPGQGLEWMGMIDPSGGSTSYAQKFQGRVTMTRDTSTSTVYMELSSLRSEDTAVYYCAKDFGGGTRYDYWYFDLWGRGTLVTVSSASTKGPSVFPLAPSSKSTSGGTAALGCLVKDYFPEPVTVSWNSGALTSGVHTFPAVLQSSGLYSLSSVVTVPSSSLGTQTYICNVNHKPSNTKVDKKVEPKSCGGGGSGGGGSGGGGSGGGGSGGGG[not shown - about 200 residues] chain 2: [not shown - human IgG1 Fc]GGGGSGGGGSGGGGSGGGGSGGGGSGGGGSGGGGSGGGGSGGGGSGGGGSGGGGSGGGGSGGGGSGGGGS[not shown - human IgG1 Fc]GGGGSGGGGSGGGGSGGGGSGGGGSGGSSQIRQNYSTDVEAAVNSLVNLYLQASYTYLSLGFYFDRDDVALEGVSHFFRELAEEKREGYERLLKMQNQRGGRALFQDIKKPAEDEW chain 3: EIVMTQSPATLSVSPGERATLSCRASQSVSSRYLAWYQQKPGQAPRLLIYGASTRATGIPARFSGSGSGTEFTLTISSLQSEDFAVYYCQQYYTTPRTFGQGTRLEIKRTVAAPSVFIFPPSDEQLKSGTASVVCLLNNFYPREAKVQWKVDNALQSGNSQESVTEQDSKDSTYSLSSTLTLSKADYEKHKVYACEVTHQGLSSPVTKSFNRGECGGGGSGGGGSGGGGSGGGGSGGGGSGGGGSGGGGSGGGGSGGGGSGGGGSGGGGSGGGGSGGGGSGGGGSQVQLVQSGAEVKKPGASVKVSCKASGYTFTSYDINWVRQAPGQGLEWMGMIDPSGGSTSYAQKFQGRVTMTRDTSTSTVYMELSSLRSEDTAVYYCAKDFGGGTRYDYWYFDLWGRGTLVTVSSASTKGPSVFPLAPSSKSTSGGTAALGCLVKDYFPEPVTVSWNSGALTSGVHTFPAVLQSSGLYSLSSVVTVPSSSLGTQTYICNVNHKPSNTKVDKKVEPKSCGGGGSGGGGSGGGGSGGGGSGGGGSGKTPDAMKAAMALEKKLNQALLDLHALGSARTDPHLCDFLETHFLDEEVKLIKKMGDHLTNLHRLGGPEAGLGEYLFERLTLRHD	7.2	7.2
